Assay results taken from US10299477B2 (priority 2015, dated 2019).

Tests used:
Format in all cases: in vivo
[1] = test system: Blumeria graminis f sp. hordei; experiment: Test Example D: Powdery mildew on barley; conditions: powdery mildew on barley; 250 ppm spray
Description: [Test Example D] Powdery Mildew on Barley
After the sprayed dilutions were dried, conidia of Blumeria graminis f sp. hordei were inoculated to the plants by shaking off.

Plasmopara viticola = experiment: Test Example G: Downy mildew on vine; conditions: downy mildew on vine, Plasmopara viticola; 250 ppm spray, 7-10 days after inoculation
Description: [Test Example G] Downy Mildew on Vine
Seeds of a test plant (grape variety: Neomuscat) were planted followed by cultivating until three to four first leaves appeared. […] After the sprayed dilutions were dried, a zoosporangia suspension (1-2×10^4 zoosporangia/ml) of Plasmopara viticola was inoculated to the plants by spraying.

Alternaia brassicicola = experiment: Test Example C: Alternaria sooty spot on cabbage; conditions: Alternaria sooty spot on cabbage; 250 ppm spray
Description: [Test Example C] Alternaria Sooty Spot on Cabbage
Seeds of a test plant (cabbage variety: Shikidori) were planted followed by cultivating until the cotyledons extended.

Puccinia recondita = experiment: Test Example E: Brown rust on wheat; conditions: brown rust on wheat, Puccinia recondita; 250 ppm spray
Description: [Test Example E] Brown Rust on Wheat

Botrytis cinerea = experiment: Test Example B: Gray mold on tomato; conditions: gray mold on tomato, Botrytis cinerea; 250 ppm spray
Description: [Test Example B] Gray Mold on Tomato
Seeds of a test plant (tomato variety: Oogata Fukuju) were planted followed by cultivating until three to five first leaves (true leaves) appeared.

Structure (SMILES)	Test D (control value class) [1]	Test G (control value class) (Plasmopara viticola)	Test C (control value class) (Alternaia brassicicola)	Test E (control value class) (Puccinia recondita)	Test B (control value class) (Botrytis cinerea)
CCn1c(-c2c(F)cc(F)cc2F)c(-c2cc(OC)ccc2Cl)cc(Cl)c1=O [Compound 404]	H (H shows more than 50% of control values)	H (H shows more than 50% of control values)	H (H shows more than 50% of control values)	H (H shows more than 50% of control values)	H (H shows more than 50% of control values)
Cn1c(-c2c(F)cccc2F)c(-c2c(F)cccc2Cl)cc(Cl)c1=O [Compound 405]	H (H shows more than 50% of control values)	L (L shows 50% or less of control values)	H (H shows more than 50% of control values)	H (H shows more than 50% of control values)	H (H shows more than 50% of control values)
O=c1ccc(-c2c(F)cccc2Cl)c(-c2c(F)cccc2F)n1CC(F)F [Compound 406]	H (H shows more than 50% of control values)	H (H shows more than 50% of control values)	H (H shows more than 50% of control values)	H (H shows more than 50% of control values)	H (H shows more than 50% of control values)
COc1ccc(Cl)c(-c2cc(Cl)c(=O)n(CC(F)(F)F)c2-c2c(F)cccc2F)c1 [Compound 410]	H (H shows more than 50% of control values)	L (L shows 50% or less of control values)	H (H shows more than 50% of control values)	H (H shows more than 50% of control values)	H (H shows more than 50% of control values)
COc1ccc(Cl)c(-c2cc(Br)c(=O)n(CC(F)(F)F)c2-c2c(F)cccc2F)c1 [Compound 411]	H (H shows more than 50% of control values)	L (L shows 50% or less of control values)	H (H shows more than 50% of control values)	H (H shows more than 50% of control values)	H (H shows more than 50% of control values)
COc1ccc(Cl)c(-c2cc(Cl)c(=O)n(C(C)C)c2-c2c(F)cccc2F)c1 [Compound 413]	H (H shows more than 50% of control values)	L (L shows 50% or less of control values)	L (L shows 50% or less of control values)	H (H shows more than 50% of control values)	H (H shows more than 50% of control values)
COc1ccc(Cl)c(-c2ccc(=O)n(C)c2-c2c(F)cc(F)cc2F)c1 [Compound 415]	H (H shows more than 50% of control values)	L (L shows 50% or less of control values)	H (H shows more than 50% of control values)	H (H shows more than 50% of control values)	H (H shows more than 50% of control values)
CCn1c(-c2c(F)cccc2F)c(-c2ccc(Cl)cc2F)cc(Cl)c1=O [Compound 417]	H (H shows more than 50% of control values)	L (L shows 50% or less of control values)	H (H shows more than 50% of control values)	H (H shows more than 50% of control values)	L (L shows 50% or less of control values)
Cn1c(-c2c(F)cccc2F)c(-c2ccc(Cl)cc2F)ccc1=O [Compound 418]	L (L shows 50% or less of control values)	L (L shows 50% or less of control values)	H (H shows more than 50% of control values)	H (H shows more than 50% of control values)	H (H shows more than 50% of control values)
CCn1c(-c2c(F)cc(F)cc2F)c(-c2ccccc2Cl)cc(Cl)c1=O [Compound 421]	H (H shows more than 50% of control values)	L (L shows 50% or less of control values)	H (H shows more than 50% of control values)	H (H shows more than 50% of control values)	H (H shows more than 50% of control values)
COc1ccc(Cl)c(-c2ccc(=O)n(N)c2-c2c(F)cccc2F)c1 [Compound 422]	L (L shows 50% or less of control values)	L (L shows 50% or less of control values)	H (H shows more than 50% of control values)	H (H shows more than 50% of control values)	H (H shows more than 50% of control values)
COc1ccc(Cl)c(-c2cc(Cl)c(=O)n(N)c2-c2c(F)cccc2F)c1 [Compound 423]	L (L shows 50% or less of control values)	H (H shows more than 50% of control values)	H (H shows more than 50% of control values)	H (H shows more than 50% of control values)	H (H shows more than 50% of control values)
CCn1c(-c2c(F)cc(F)cc2F)c(-c2cc(F)ccc2F)ccc1=O [Compound 424]	H (H shows more than 50% of control values)	L (L shows 50% or less of control values)	H (H shows more than 50% of control values)	H (H shows more than 50% of control values)	H (H shows more than 50% of control values)
Cn1c(-c2c(F)cc(F)cc2F)c(-c2cc(F)ccc2F)ccc1=O [Compound 426]	H (H shows more than 50% of control values)	L (L shows 50% or less of control values)	H (H shows more than 50% of control values)	H (H shows more than 50% of control values)	H (H shows more than 50% of control values)
O=c1ccc(-c2ccc(Cl)cc2F)c(-c2c(F)cccc2F)n1CC(F)F [Compound 428]	H (H shows more than 50% of control values)	H (H shows more than 50% of control values)	H (H shows more than 50% of control values)	H (H shows more than 50% of control values)	H (H shows more than 50% of control values)
CCn1c(-c2c(F)cc(OC)cc2F)c(-c2ccccc2Cl)ccc1=O [Compound 430]	H (H shows more than 50% of control values)	H (H shows more than 50% of control values)	H (H shows more than 50% of control values)	H (H shows more than 50% of control values)	H (H shows more than 50% of control values)
Cn1c(-c2c(F)cc(F)cc2F)c(-c2ccccc2Cl)ccc1=O [Compound 431]	H (H shows more than 50% of control values)	H (H shows more than 50% of control values)	H (H shows more than 50% of control values)	H (H shows more than 50% of control values)	H (H shows more than 50% of control values)
Cn1c(-c2c(F)cc(F)cc2F)c(-c2ccccc2Cl)cc(Cl)c1=O [Compound 432]	H (H shows more than 50% of control values)	H (H shows more than 50% of control values)	H (H shows more than 50% of control values)	H (H shows more than 50% of control values)	H (H shows more than 50% of control values)
COc1cc(F)c(-c2c(-c3ccccc3Cl)ccc(=O)n2C)c(F)c1 [Compound 433]	H (H shows more than 50% of control values)	L (L shows 50% or less of control values)	H (H shows more than 50% of control values)	H (H shows more than 50% of control values)	H (H shows more than 50% of control values)
CCn1c(-c2c(F)cc(OC)cc2F)c(-c2ccccc2Cl)cc(Cl)c1=O [Compound 434]	H (H shows more than 50% of control values)	H (H shows more than 50% of control values)	H (H shows more than 50% of control values)	H (H shows more than 50% of control values)	H (H shows more than 50% of control values)
COc1cc(F)c(-c2c(-c3ccccc3Cl)cc(Cl)c(=O)n2C)c(F)c1 [Compound 435]	H (H shows more than 50% of control values)	H (H shows more than 50% of control values)	H (H shows more than 50% of control values)	H (H shows more than 50% of control values)	H (H shows more than 50% of control values)
